Consider 62 molecules from PubChem BioAssay AID1508642 (National Center for Advancing Translational Sciences (NCATS), 2021).

Molecules are shown by their SMILES. In all, about 43,000 compounds went through this assay and about 200 (0.47%) were called active. Another 12% or so got no clear call; they are omitted. The call rests on the fitted dose curve; in most records, active means well fitted cell-killing curve with a large enough effect; inconclusive means small, poorly fitted or top-dose-only effect, or effect the other way; inactive means flat fitted curve, though single readings scatter. This is one part of the list.
On the % scale 0 is the no-effect control and ±100 the full control effect.

A short description of this assay: Cell viability qHTS assay in S16 Pmp22-F2sN cells. Further: nearly all actives have a fitted effect of over 65% in size. The conditions noted are these: S16 Pmp22-F2sN Schwann cells viability, CellTiter-Glo, 24 h; series mostly up to 57.5 µM; activity change, negative = cytotoxicity: at the top concentration. Summed up:
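S16 Pmp22-F2sN Schwann cells (500-1,000/well) in phenol-red-free DMEM with 10% FBS received 23 nL compound by pin tool for 24 h at 37 °C. Viability was then read as CellTiter-Glo luminescence after 15 min at room temperature.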
(In qHTS, concentration-response curves come from the screen itself.)
`CC(C)CCNC(=O)c1ccc2nc(CCc3ccccc3)oc2c1`: the “activity change, negative = cytotoxicity” value is inactive: 1.11%. `CC(C)c1ccc(S(=O)(=O)N2CCN(CC(=O)Nc3ccccc3C(F)(F)F)CC2)cc1`: the “activity change, negative = cytotoxicity” value is inactive: -0.821%. With `COc1cc(CN(C(=O)Nc2cccc(Cl)c2)c2ccccn2)cc(OC)c1OC` the figure was inactive: -8.37%; with `COC(=O)c1nnn(CC(=O)Nc2c(C)cccc2C)c1N`, inactive: -7.51%. In the case of `COC(=O)c1ccc(C(=O)OC)c(NC(=O)c2c(-c3ccccc3)noc2C)c1`, the “activity change, negative = cytotoxicity” value is inactive: -0.703%.

As to `COc1ccc(CCNc2nc(SCc3ccccc3F)nc3ccccc23)cc1OC`, the “activity change, negative = cytotoxicity” value was inactive: -4.1%.

`CCOC(=O)c1c(C)oc2nc(C)nc(NCCc3ccc(OC)c(OC)c3)c12`: the “activity change, negative = cytotoxicity” value was inactive: -11.8%. In the case of `COC(=O)c1sc(N2C(=O)c3oc4ccc(C)cc4c(=O)c3C2c2ccc(O)c(OC)c2)nc1C` (configuration not stated), the “activity change, negative = cytotoxicity” value was inactive: -12.8%. As for `CCCCC(CC)CNC(=O)CCCCn1c(=O)[nH]c2ccsc2c1=O` (configuration not stated), the “activity change, negative = cytotoxicity” value is inactive: -12.9%. To `Cc1cccc(-c2noc(-c3ccc(NCc4ccccc4)c([N+](=O)[O-])c3)n2)c1` belongs inactive: 6.18%; to `CC1=C(c2ccc(C)c(C)c2)S(=O)(=O)N=C1N1CCC(C(=O)NCc2ccccc2C)CC1`, inactive: -4.27%. Turning to `Cc1ccc(NC(=O)CN2C(=O)COc3ccc(S(=O)(=O)N4CCOCC4)cc32)cc1N(C)C`, the “activity change, negative = cytotoxicity” value is inactive: 16.3%. On to `COc1ccccc1N1CCN(CCCNC(=O)c2nnc(Cc3ccc(F)cc3Cl)o2)CC1`, for which the “activity change, negative = cytotoxicity” value is inactive: -19.3%. As to `Cc1ccc(N(C)S(=O)(=O)c2ccc(-c3coc(C)n3)cc2)cc1`, the “activity change, negative = cytotoxicity” value was inactive: 2.01%. To `Cc1nn(CC(=O)NCCc2ccccc2)c(=O)c2nn(-c3ccccc3)c(C)c12` belongs inactive: 0.657%; to `COc1cc(C2C(C(=O)Nc3ccc(Cl)cc3)=C(C)Nc3nc(SC)nn32)cc(OC)c1OC` (configuration not stated), inactive: 0.929%; to `CC1=C(C(N)=O)C(c2cccc(Br)c2)n2nc(SCc3ccccc3Cl)nc2N1` (configuration not stated), inactive: -7.88%. Regarding `Cc1cc(C)c2oc(-c3ccc(NC(=O)COc4ccccc4C)cc3)nc2c1`, the “activity change, negative = cytotoxicity” value is inactive: -2.17%.

As to `CCOc1ccc(CCNC(=O)c2cc3sccc3n2CC)cc1OCC`, the “activity change, negative = cytotoxicity” value is inactive: -0.774%. Take `CC(C)Cc1ccc(S(=O)(=O)NCc2nc3cccnc3n2Cc2ccccc2)cc1`: the “activity change, negative = cytotoxicity” value is inactive: -9.59%. With `COc1ccc(-n2ncc(C(=O)N3CCN(C(=O)c4ccco4)CC3)c2C2CCN(C(=O)OC(C)(C)C)CC2)cc1` the figure was inactive: -1.95%; with `COc1ccc(-c2ccc(CNCCCSc3nnnn3C)o2)cc1Cl`, inactive: 4.4%. To `Cc1ccc(-n2nc3c(N4CCC(C(=O)NC5CCCCC5)CC4)nnc(C)c3c2C)cc1` belongs inactive: -16.7%. `Cc1cc2oc(C(=O)Nc3ccc(S(=O)(=O)N4CCC(C)CC4)cc3)cc(=O)c2cc1C`: the “activity change, negative = cytotoxicity” value was inactive: -2.98%. Consider `Cc1ccc(/C=C/C(=O)N2CCC(c3nc4ccccc4o3)CC2)cc1`, for which the “activity change, negative = cytotoxicity” value was inactive: -2.96%. To `COc1ccc(NC(=O)c2c(NCc3ccc(OC)c(OC)c3OC)sc3c2CCC3)c(OC)c1` belongs inactive: -24.1%. For the molecule `CCCCCOc1ccccc1CN1C(=O)C(=O)c2cc(C)ccc21`, the “activity change, negative = cytotoxicity” value was inactive: -0.0419%. On to `COc1cccc(CNC(=O)Cn2nc(-c3ccc(C)cc3)ccc2=O)c1`, for which the “activity change, negative = cytotoxicity” value is inactive: -6.46%. With `COc1ccccc1NC(=O)CSc1ccc(-c2ccccn2)nn1`, the “activity change, negative = cytotoxicity” value was inactive: -10.9%. With `Cc1ccc(N(C)C(CNS(=O)(=O)c2ccccc2)c2ccccc2)cc1` (configuration not stated) the figure was inactive: -5.3%. To `Cc1ccc(CNC(=O)C2CCC(CNS(=O)(=O)c3ccc(C)cc3)CC2)cc1` (configuration not stated) belongs inactive: 12%; to `COc1ccc(-n2ccnc2SCC(=O)Nc2cccc(OC)c2)cc1`, inactive: -9.85%; to `Cc1ccc(NC(=O)Cn2cc(C(=O)c3ccco3)c3ccccc32)cc1C`, inactive: -2.97%. With `CCn1ccc2cc(S(=O)(=O)N3CCCN(C(=O)Nc4cccc(SC)c4)CC3)ccc21` the figure was inactive: 1.25%; with `CCCNC(=O)C1CCN(C(=O)N2CC(C)Oc3ccccc32)CC1` (configuration not stated), inactive: -0.0255%; with `O=C(C1CCC(Cn2c(=O)c3sccc3n(Cc3cccc(F)c3)c2=O)CC1)N1CCOCC1` (configuration not stated), inactive: -26.3%. In the case of `CCCCCCNC(=O)c1c[nH]c2ccc(S(=O)(=O)N(C)c3ccc(C(C)C)cc3)cc2c1=O`, the “activity change, negative = cytotoxicity” value is inactive: -7.16%. Regarding `N#C/C(=C/c1ccccc1Cl)c1nc2ccccc2c(=O)[nH]1`, the “activity change, negative = cytotoxicity” value was inactive: 1.57%.

As to `COc1ccc(N2CCN(C3(c4ccccc4)C(=O)c4ccccc4C3=O)CC2)cc1`, the “activity change, negative = cytotoxicity” value was inactive: -3.41%.

Turning to `Cc1ccc(Cl)cc1N(C)C(=O)c1cc2c(Cl)nc3ccccc3c2s1`, the “activity change, negative = cytotoxicity” value is inactive: 18.2%.

For the molecule `COc1ccc(N2C(=O)CSC23C(=O)N(CC(=O)Nc2ccccc2F)c2ccccc23)cc1` (configuration not stated), the “activity change, negative = cytotoxicity” value is inactive: -15.4%. Turning to `Cc1cccc(C(=O)Nc2cc3nn(-c4ccc(C(C)C)cc4)nc3cc2C)c1`, the “activity change, negative = cytotoxicity” value is inactive: 5.62%.

Take `COc1cccc(OC(=O)CSc2nnc(-c3cccs3)o2)c1`: the “activity change, negative = cytotoxicity” value is inactive: 2.16%. For `Cc1cc2nn(-c3ccc(F)cc3)nc2cc1NC(=O)c1cccc([N+](=O)[O-])c1C`, the “activity change, negative = cytotoxicity” value is inactive: -0.317%.

For `CC(=O)Nc1ccc(Nc2nc3c(S(=O)(=O)c4cc(C)ccc4C)nnn3c3ccsc23)cc1`, the “activity change, negative = cytotoxicity” value is inactive: -0.707%. As for `COC(=O)c1ccccc1NC(=O)c1nn(C)c2c1COc1ccccc1-2`, the “activity change, negative = cytotoxicity” value is inactive: -1.9%. On to `Cn1c(SCC(=O)Nc2nc3ccccc3s2)ncc(C(=O)Nc2ccc(Cl)cc2)c1=O`, for which the “activity change, negative = cytotoxicity” value is inactive: -3.14%.

Consider `CCOCCCNC(=O)c1cn(CC(C)C)c(=O)c2c1c1ccccc1n2C`, for which the “activity change, negative = cytotoxicity” value was inactive: 16.8%. `COc1cccc(NC(=O)Cn2nnc(C(=O)NCc3ccc4c(c3)OCO4)c2N)c1`: the “activity change, negative = cytotoxicity” value was inactive: -2.96%.

Regarding `CSc1ncc(Cl)c(C(=O)N(C)c2ccccc2)n1`, the “activity change, negative = cytotoxicity” value is inactive: 10.8%.

Take `CCN1CCN(c2ncc3c(n2)CCN(Cc2cccc(F)c2F)C3)CC1`: the “activity change, negative = cytotoxicity” value was inactive: 10.5%.

For `Cc1cc(C)c(NC(=O)CSc2nc(=O)n(Cc3cccnc3)c3c2CCC3)c(C)c1`, the “activity change, negative = cytotoxicity” value is inactive: 6.19%. As to `COc1ccccc1Nc1ncc2c(n1)CCN(Cc1cc(F)cc(F)c1)C2`, the “activity change, negative = cytotoxicity” value was inactive: -17.2%. Turning to `Cc1ccc(N2CCN(Cc3nnc(-c4ccccc4F)o3)CC2)c(C)c1`, the “activity change, negative = cytotoxicity” value is inactive: -23%. As to `Cc1ccc(-c2c3c(=O)n(C)c(=O)n(C)c3c3cnc4ccccc4n23)cc1`, the “activity change, negative = cytotoxicity” value was inactive: -7.29%. Turning to `Cc1ccc(S(=O)(=O)CC(=O)Nc2nc3c(C)cccc3s2)cc1`, the “activity change, negative = cytotoxicity” value was inactive: 6.74%. As for `O=C(Nc1ccc(Cl)c(C(F)(F)F)c1)c1nc2ccccc2nc1N1CCCCC1`, the “activity change, negative = cytotoxicity” value is inactive: -1.91%. With `COc1ccc(-c2[nH]c3c(c2-c2c(-n4cccc4)n(C)c(=O)[nH]c2=O)c(=O)[nH]c(=O)n3C)cc1F` the figure was inactive: 8.17%. With `COc1ccccc1Nc1nc(N)nc(N)c1S(=O)(=O)c1ccccc1` the figure was inactive: 6.03%. `COc1ccc(-n2nnc(-c3nsc(NC(=O)c4cccc(C)c4)n3)c2C)cc1OC`: the “activity change, negative = cytotoxicity” value is inactive: 2.3%. With `COc1cccc(NC(=O)/C(C#N)=C/c2c(C)n(Cc3ccccc3)c3ccccc23)c1` the figure was inactive: -15.1%; with `CCOc1ccc(NC(=O)CCc2c(C)nc3nc(-c4cc(OC)cc(OC)c4)nn3c2C)cc1`, inactive: 16.9%.
